In all, about 110,000 compounds were measured (“z-score”: median about -0.1, highest 2% from about 2 on). The list shows a part of the results. Active and inactive are the calls of the source.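 How the source made its calls: active means z-score in the third read window above 3 or below -3; inactive means the rest.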

This assay concerns the target Metabotropic glutamate receptor 8 (Rattus norvegicus) (UniProt P70579). Description: mGluR8 Gi/Go-coupled signaling modulation – cell-based, rat, thallium flux, HTS, primary screen (AID 488969). The settings on record: HEK293 rat mGluR8, GIRK (G protein-gated inwardly rectifying potassium channel) thallium flux, FluoZin2; at 10 µM; stronger effect = higher value; submaximal glutamate (EC20) added with thallium.
UniProt P70579, sequence (P70579 whole entry, looked up): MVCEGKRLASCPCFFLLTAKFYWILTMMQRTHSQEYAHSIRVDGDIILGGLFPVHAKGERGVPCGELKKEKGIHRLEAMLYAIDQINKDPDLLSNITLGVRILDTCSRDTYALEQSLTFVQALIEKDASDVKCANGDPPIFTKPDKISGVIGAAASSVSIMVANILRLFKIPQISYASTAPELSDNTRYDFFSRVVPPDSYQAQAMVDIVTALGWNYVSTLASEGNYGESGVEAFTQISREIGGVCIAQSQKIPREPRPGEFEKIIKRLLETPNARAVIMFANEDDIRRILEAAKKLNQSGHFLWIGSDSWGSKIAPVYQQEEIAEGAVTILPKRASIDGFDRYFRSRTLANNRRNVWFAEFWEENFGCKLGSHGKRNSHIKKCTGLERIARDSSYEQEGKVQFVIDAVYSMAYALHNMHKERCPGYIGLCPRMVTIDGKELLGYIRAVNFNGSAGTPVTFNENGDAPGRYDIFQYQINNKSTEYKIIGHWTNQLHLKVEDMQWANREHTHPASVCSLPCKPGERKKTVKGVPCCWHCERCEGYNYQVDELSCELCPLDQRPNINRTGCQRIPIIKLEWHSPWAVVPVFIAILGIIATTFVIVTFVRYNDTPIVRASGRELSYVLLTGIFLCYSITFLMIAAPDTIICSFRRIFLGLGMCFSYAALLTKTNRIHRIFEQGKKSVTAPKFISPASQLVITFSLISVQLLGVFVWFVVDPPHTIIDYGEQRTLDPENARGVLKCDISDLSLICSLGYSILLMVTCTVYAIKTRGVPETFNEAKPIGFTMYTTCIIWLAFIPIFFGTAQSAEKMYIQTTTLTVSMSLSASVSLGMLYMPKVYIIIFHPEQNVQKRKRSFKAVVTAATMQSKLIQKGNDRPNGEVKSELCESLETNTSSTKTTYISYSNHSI
The molecule `Cc1cccc(NC(=O)c2cn(-c3ccccc3)nc2-c2ccccc2)c1` gave a z-score of -0.163.

In the case of `COc1ccc(OC)c(/C=N/NC(=O)CC2C(=O)NN=C2C)c1` (configuration not stated), the z-score is -0.12.

For the molecule `O=S(=O)(NC1c2cccc3cccc(c23)C1N1CCNCC1)c1ccccc1` (configuration not stated), the z-score was -0.568.

Consider `COc1cccc(-c2nc(CS(=O)(=O)CC(=O)NCc3ccc(Cl)cc3)c(C)o2)c1`, for which the z-score is -0.253.

In turn, `COC(=O)/C(=N/Nc1ccc(C)cc1)N1CCCc2ccccc21` came in with a z-score of -0.278.

On to `CCn1nc(C(=O)OCC(=O)N2CCc3ccccc32)c2ccccc2c1=O`, for which the z-score was active: -4.02.

As for `O=c1ccn(-c2cccc(C(F)(F)F)c2)nc1-c1ccn(-c2cccc(Cl)c2)n1`, the z-score was -0.0868.

For `CSc1nc2nc(C(F)(F)F)cc(-c3ccccc3)n2n1`, the z-score is -0.221.

As for `O=C1CN(C(=O)CSc2nnnn2-c2ccc(Cl)cc2)c2ccccc2N1`, the z-score was -0.16.

`CC(C(=O)Nc1cccnc1)N1C(=O)C2C3C=CC(C3)C2C1=O` (configuration not stated) returned a z-score of 0.119.

`COCCCNC(=O)c1ccc2c(c1)CCN2S(C)(=O)=O`: the z-score worked out at 0.419.

With `COc1ccccc1-n1c(SCC(=O)NC2CCCCC2)nc2c(c1=O)SCC2`, the z-score was -1.47.

As for `CN(CC(=O)Nc1ccc2c(c1)OCCO2)S(=O)(=O)c1cccc2cccnc12`, the z-score is -0.155.

`CC(C)c1cc(Br)ccc1OCCCN1C(=O)NC(C)(C)C1=O` gave a z-score of -0.263.

In turn, `COc1ccc(OC)c(-n2c(=S)[nH]c3cc(C(=O)N4CCC(C(N)=O)CC4)ccc3c2=O)c1` registered a z-score of 0.171.

Turning to `Clc1cccc(Cl)c1CO/N=C/c1c(-c2ccccc2)nc2n1CCS2`, the z-score was -0.177.

As for `O=S1(=O)N=C(N(CCO)/N=C/C=C/c2ccccc2)c2ccccc21`, the z-score is -0.515.

In the case of `CCOc1ccc(S(=O)(=O)N2CCN(c3ccccc3)CC2)c2cccnc12`, the z-score was determined as 0.793.

For `CCOC(=O)C1=C(C)Nc2nc3ccccc3n2C1c1ccccc1` (configuration not stated), the z-score was 0.0404.

With `O=C(Cc1ccccc1)Nc1ccc(C(=O)NCC2COc3ccccc3O2)cc1` (configuration not stated), the z-score is -0.477.

Consider `Cc1ccc(S(=O)(=O)c2c(C)cc(C)nc2Cl)cc1`, for which the z-score is -0.0793.

With `CC(C)C(CO)NC(=O)CC(=O)NC(CO)C(C)C` (configuration not stated), the z-score came out at 0.0738.

`COC(=O)c1cc(NC2c3ccccc3C(=O)N2c2cccnc2)cc(C(=O)OC)c1` (configuration not stated) returned a z-score of 0.475.

Take `Cc1ccc(-c2csc3nc[nH]c(=S)c23)cc1C`: the z-score is active: 15.9.

On to `Cc1ccc(/C=C2/NC(=O)N(Cc3ccccc3F)C2=O)o1`, for which the z-score is -0.045.

With `O=C(CCc1ccc(S(=O)(=O)NC2CCCCC2)cc1)N(Cc1ccccc1)Cc1ccccc1`, the z-score was -0.22.

Consider `O=C(O)CC(C(=O)Nc1ccc(Cl)c(Cl)c1)C1CCCO1` (configuration not stated), for which the z-score is -0.249.

As to `C=CCn1c(COc2ccccc2F)nnc1SCC(=O)c1c[nH]c2ccccc12`, the z-score was -0.412.

`CCn1c(CC(=O)Nc2cccc(Cl)c2Cl)nnc1SCCOc1ccc(OC)cc1` yielded a z-score of -1.5.

Molecule `Cc1ccc(/C=N/n2c(-c3ccncc3)n[nH]c2=S)cc1` yielded a z-score of 0.0356.

In turn, `O=C1C2C3C=CC(C4CC34)C2C(=O)N1/N=C/c1ccc(-c2ccc(F)cc2[N+](=O)[O-])o1` (configuration not stated) yielded a z-score of -0.473.

`Cc1ccc(-c2nc(-c3ccccc3)no2)cc1` returned a z-score of 1.07.

In turn, `CCOc1ccccc1CNc1ccc(N2CCOCC2)c(C(=O)O)c1` returned a z-score of -0.456.

The molecule `CCOC(=O)CNC(=O)CSc1nc(N(C)C)nc(N2CCOCC2)n1` returned a z-score of -0.116.

For the molecule `CC(/C=C/c1ccco1)=N\NC(=O)c1cc(C)[nH]n1`, the z-score is -0.205.

Take `O=C(NC(=S)Nc1ccc2c(c1)OCCO2)c1ccccc1`: the z-score came to 2.12.

On to `CC1(C)Cc2c(C#N)c(OCC(=O)c3ccc(Cl)cc3)nc(-c3ccoc3)c2CO1`, for which the z-score is -0.176.

On to `CCC(CC)C(=O)Nc1cc(NC(=O)C(CC)CC)cc(C(=O)O)c1`, for which the z-score was -0.469.

Regarding `COc1ccc(-c2nnc(N(C)C(=O)C3CCCO3)s2)cc1` (configuration not stated), the z-score was -0.795.

Molecule `Cc1cc(NC(=O)CSc2nnc(NC(=O)C3CC(=O)N(c4ccccc4)C3)s2)no1` (configuration not stated) registered a z-score of -0.322.

Consider `CC1CCCCC1NC(=S)Nc1ccc(SC(F)F)cc1` (configuration not stated), for which the z-score was active: 5.08.

For `CN1C(=O)N(C)C2C1N(CN1CCCCC1)C(=O)N2CN1CCCCC1` (configuration not stated), the z-score was -0.0397.

Molecule `CCOC(=O)N1CCN(Cc2nc(-c3ccccc3)no2)CC1` yielded a z-score of -0.324.

`CCOC(=O)CCCNC(=O)COC(=O)c1ccc(O)cc1`: the z-score was -0.506.

Consider `COC(=O)c1cc(=O)n(CCc2ccccc2)c(=Nc2ccc(F)cc2)s1`, for which the z-score came out at 0.432.

`O=C(O/N=C1\CCCc2ccccc21)c1cccc(Cl)c1` yielded a z-score of 0.216.

Molecule `C=CC12C=CC=CN1C(C(=O)OC)=C(C(=O)OC)C(C(=O)OC)=C2C(=O)OC` (configuration not stated) registered a z-score of -0.272.

In turn, `O=S(=O)(/C=C/c1ccccc1)Nc1ccc2c(c1)OCO2` showed a z-score of -0.74.

The molecule `CCOC(=O)Cn1nc(C)n(-c2ccccc2)c1=O` registered a z-score of 0.0364.

In turn, `O=C(NNS(=O)(=O)c1ccc(Cl)cc1)c1cnn(-c2ccccc2)c1-n1cccc1` returned a z-score of 0.0378.

`CS(=O)(=O)NC1c2cccc3cccc(c23)C1Sc1nncn1/N=C/c1ccco1` (configuration not stated) gave a z-score of -0.475.

`Cc1cc2cc(CN(Cc3cccs3)C(c3nnnn3C(C)(C)C)C(C)C)c3nnnn3c2cc1C` (configuration not stated): the z-score is -0.0191.

`CCc1ccc(N2C(=O)c3sc4nnc(-c5ccccc5)c(=O)n4c3C2=O)cc1` came in with a z-score of -0.743.

In turn, `O=[N+]([O-])c1ccc(N2CCN(Cc3ccccc3)CC2)c(S(=O)(=O)N2CCOCC2)c1` registered a z-score of -0.3.

In turn, `COc1cc(C)nc(N2CCC(C(N)=O)CC2)n1` had a z-score of 0.0462.

The molecule `COc1cccc(C(=O)NCC(=O)n2nc(C)cc2C)c1` returned a z-score of 0.363.

As to `Oc1ccc(N=Nc2cccc(C(F)(F)F)c2)cc1C=Nc1ccc(N2CCOCC2)cc1`, the z-score was -0.258.

In turn, `Clc1ccc(-c2ccc(/C=N/Nc3nncc(-c4ccccc4)n3)o2)cc1` came in with a z-score of -0.0188.

For the molecule `C#CCOc1c(Br)cc(/C=N\NC(=O)CN2CCOCC2)cc1OCC`, the z-score is -0.919.

Consider `CSc1ccc(/C=c2\s/c(=C\C(=O)C(C)(C)C)n(CC(=O)NCCC3=CCCCC3)c2=O)cc1`, for which the z-score is -0.0802.

With `COc1ccc2c(c1)c1nc3ccccc3nc1n2CCCN1C(=O)c2ccccc2C1=O`, the z-score was -0.0232.

The molecule `Cn1nccc1C(=O)c1ccc(Cl)cc1` had a z-score of 0.173.

For the molecule `COc1cc(NC(=O)c2cc(C(C)C)on2)c(OC)cc1Cl`, the z-score is 0.0343.

`CCOc1ccc(OCc2ccc(C(=O)NCc3ccncc3)o2)cc1` gave a z-score of -0.0211.

On to `COc1cc(NC(=O)C2CCCO2)c(OC)cc1NC(=O)c1ccccc1` (configuration not stated), for which the z-score was -0.236.

The molecule `Cc1ncc2c(c1OC(=O)c1ccccc1)COC(C)(C)OC2` displayed a z-score of 0.712.

`Cc1nn(CC(=O)NCc2ccccc2)c(C)c1[N+](=O)[O-]` showed a z-score of -0.00269.

The molecule `CCN1C(=O)/C(=C/c2nc3ccccc3c(=O)n2-c2ccc(C)cc2)c2ccccc21` gave a z-score of -0.146.

Take `O=C(CN1CCN(c2ccccc2O)CC1)NC(c1ccccc1)c1ccccc1`: the z-score was 0.00777.

Molecule `Cc1ccccc1-n1c(-c2cccnc2)n[nH]c1=S` showed a z-score of -0.275.

`CCCC(C)C(=O)NCc1ccc2c(c1)OCO2` (configuration not stated): the z-score was -0.306.

In turn, `CC/C(Cc1ccccc1)=N\NC(=O)c1cc(C)oc1C` registered a z-score of -0.582.

The molecule `O=C(NNC(=O)c1ccccc1-n1cccc1)c1ccc(Cl)cc1` yielded a z-score of -0.0349.

`COc1cc(C)nc(OCCNC(=O)COc2ccc(Cl)cc2C)n1` yielded a z-score of 0.0609.

With `COc1cc(C(=O)Nc2ccc(S(=O)(=O)NC(C)C)cc2)cc(OC)c1OC`, the z-score is -0.131.

Take `Cc1cccc(C(=O)NC(=S)NNC(=O)c2ccccc2Cl)c1`: the z-score was active: 5.34.

The molecule `NC(=O)c1c(NC(NC(=O)c2ccco2)C(=O)c2ccc(Cl)cc2)sc2c1CCCC2` (configuration not stated) displayed a z-score of -0.44.

On to `CC(Sc1nnc(C2CCCCC2)n1N)C(=O)NCc1ccc2c(c1)OCO2` (configuration not stated), for which the z-score is 0.393.

Molecule `CCN1CCN(C(=O)/C=C/c2ccc(C)o2)CC1` showed a z-score of -0.161.

As for `O=C(C#Cc1ccccc1)c1ccc([N+](=O)[O-])cc1`, the z-score is -0.372.

`CCC(=O)N1c2ccccc2[C@@H](N(C(C)=O)c2ccccc2)C[C@H]1C` yielded a z-score of -0.27.

Consider `COc1cc(C)nc(N2CCCC(C(=O)Nc3cccc(Cl)c3Cl)C2)n1` (configuration not stated), for which the z-score is -0.0262.

Molecule `O/N=C/c1cc(Br)ccc1OCc1ccccc1F` came in with a z-score of -0.171.

On to `Cc1ccc(-c2c(C)n([O-])c3c([n+]2=O)CCC3)cc1`, for which the z-score is -0.263.

In turn, `Cn1ncc(Cl)c1C(=O)N1CCCc2ccccc21` showed a z-score of 0.0572.

The molecule `COC(=O)c1cccc(NC(=O)/C=C/c2cccc([N+](=O)[O-])c2)c1` yielded a z-score of -0.164.

As for `CN1CCc2nc3sc(C(=O)C45CC6CC(CC(C6)C4)C5)c(N)c3cc2C1`, the z-score was -0.176.

As for `O=[N+]([O-])c1cc2c(cc1/C=N/Nc1nc(N3CCCC3)nc(N3CCCC3)n1)OCO2`, the z-score was -0.208.

With `CC(=O)N1N=C(c2ccc(C)o2)CC1c1ccc(Br)cc1` (configuration not stated), the z-score is -0.469.

Consider `Cc1ccc(C(=O)Nc2ccccc2C(=O)N2CCOCC2)cc1[N+](=O)[O-]`, for which the z-score was -0.149.

`CCN(CC)C(=O)c1cc2cc(Br)ccc2oc1=O` showed a z-score of 0.312.

As for `CCC(=O)Nc1ccc2c(c1)C(=O)N(C1CCCCC1)C2=O`, the z-score is -0.167.

In turn, `Cc1ccccc1C(=O)NNC(=O)Cc1ccccc1` displayed a z-score of -0.146.

In turn, `CN(C)c1nn(C(=O)Nc2ccc(Cl)cc2Cl)cc1-c1ccccc1` showed a z-score of 0.096.

In turn, `O=C(Nc1ccc2cn[nH]c2c1)c1ccc(Cl)c(S(=O)(=O)N2CCOCC2)c1` returned a z-score of -0.292.

Molecule `CCNS(=O)(=O)c1ccc(NC(=O)Nc2cccc(C(F)(F)F)c2)cc1` registered a z-score of -0.286.

The molecule `Cc1ccc(SCC2(O)CCN(C(=O)c3ccc(Cl)cc3)CC2)cc1` gave a z-score of -0.328.

Regarding `Cc1oc(-c2ccccc2Cl)nc1CS(=O)CC(=O)NCc1cccs1` (configuration not stated), the z-score was -1.02.

For the molecule `O=C(Nc1ccccc1Cl)O/N=C(/c1ccccc1)c1ccccn1`, the z-score was -0.521.

In turn, `Cc1cc2c(C)nc(-c3ccccc3)nc2o1` had a z-score of 0.681.

With `CCc1nc(-n2[nH]c(=O)c3ccccc3c2=O)c2c3c(sc2n1)CCCC3`, the z-score amounted to 0.0357.

With `CCOc1cc(/C=N/NC(=O)Cn2nc([N+](=O)[O-])cc2C)ccc1OCc1ccc(F)cc1`, the z-score was -0.177.

Take `COc1ccc(CC(=O)N2CCN(c3ccccn3)CC2)cc1OC`: the z-score is 0.442.

Molecule `COc1ccc(C(=O)Nc2ccc(Cl)cc2C(=O)NCCN2CCOCC2)cc1` showed a z-score of 0.417.

In turn, `COc1cc(Cl)ccc1NC(=O)COc1ccccc1C(=O)N1CCN(c2ccc(O)cc2)CC1` returned a z-score of 0.132.

As for `COc1ccccc1CO/N=C/NC(=O)c1c(OC)ccnc1Oc1ccc(F)cc1`, the z-score is -0.607.

In the case of `N#C/C(=N\Nc1cccc2ccccc12)c1nnc2n1CCCCC2`, the z-score is -0.102.

The values above are taken from PubChem BioAssay AID488969 (Vanderbilt High Throughput Screening Facility, 2010).
